Test results taken from US7541342B2, “Use of PKC-activating compounds as cardioprotectants and as apoptosis-inducing anti-tumor agents” (University of Tennessee Research Foundation, priority 2005, dated 2009).

Assays:
[1] = system: K562 cells overexpressing P-glycoprotein; assay: IC50/IC90 cytotoxicity in drug-sensitive K562 (S) versus P-glycoprotein overexpressing K562 (R)
[2] = system: neonatal rat ventricular myocytes (NRVM); assay: ATP content (luciferin/luciferase) in anti-erbB-2 antibody treated NRVM; conditions: 200 nM drug 1 hr prior to anti-erbB-2 antibody
32D.3 cells [3] = assay: Mitochondrial membrane depolarization ([…] staining); type: cell-based, murine; conditions: combined with 5 μM AD 198; rottlerin 10 μM, Z-VAD-FMK 200 μM, CsA 5 μM
PLS3 = PLS3 threonine phosphorylation (Ni bead pulldown, Western blot); type: cell-based; conditions: with 5 μM AD 198 for 2 hr
Description: (§1) Cell Culture, Transfection, and Treatment: HeLa cells were cultured in Dulbecco's modified Eagle's medium (DMEM) containing 10% fetal bovine serum, 2 mM […] and penicillin (100 units/mL)-streptomycin (100 μg/mL) at 37° C. in a humidified 5% CO2 atmosphere. HeLa cells at 90% confluence were transfected with different mammalian expression vectors using LIPOFECTAMIN™ 2000 transfection reagent according to the manufacturer's protocol (Invitrogen Corporation, Carlsbad, Calif., United States of America). […] For down-regulation of PLS3, HeLa cells at 50% confluence were transfected with siRNA against PLS3 or a scrambled control. […] The whole cell lysate was extracted for analysis with Western blotting.
Purification of His-tagged Proteins from Transfected HeLa Cells: After washing with ice-cold PBS, HeLa cells transfected with the pCMV-PLS3 or PLS3(T21A) vector were incubated in lysis buffer (50 mM NaH2PO4, 500 mM NaCl, 20 mM imidazole, 1% Triton X-100, 20 mM 2-mercaptoethanol, pH 8.0) for 5 min and sonicated briefly on ice. The lysates were centrifuged at 10,000×g for 10 min at 4° C. […] Protein concentrations of the supernatants were measured with the Bio-Rad protein assay (Bio-Rad Laboratories, Hercules, Calif., United States of America) and each sample was adjusted to the same concentration. […] After washing, the beads were resuspended in SDS buffer and analyzed by Western blotting. […]

HeLa cells = assay: Apoptosis by propidium iodide staining and flow cytometry; type: cell-based; conditions: 50 μM Z-VAD-FMK or 5 μM CsA, then AD 198 16 hr
Description: as §1
Analysis of Apoptotic Cells by Flow Cytometry and Determination of the Transmembrane Potential in Mitochondria: Cell death was quantified by TUNEL (Terminal Deoxynucleotidyltransferase-mediated dUTP-biotin Nick End Labeling; Roche Diagnostics, Basel, Switzerland) or propidium iodide (PI) staining, followed by flow cytometry. For TUNEL staining, HeLa cells were fixed with 1% paraformaldehyde for 15 min on ice and 70% ethanol for 1 h at −20° C. […] The fluorescence intensity was analyzed by FACScan (BD Biosciences, San Jose, Calif., United States of America). […] The DNA content per nucleus was evaluated by FACScan. […] The cells were collected and washed with PBS and analyzed by FACScan.

[4] = Chronic anthracycline cardiotoxicity model (Bertazzoli); conditions: 10 i.v. injections
[5] = cited from earlier work
[6] = system: Raf-1/Mek/MAPK(erk1,2) pathway; assay: MAP kinase phosphorylation immunoblot in K562 cells; conditions: PD98059 20 μM
K562 cells = assay: Cytotoxicity analysis in K562 cells; conditions: 10 μM, 72 hrs of exposure
PKC-δ = assay: PKC translocation immunoblot in primary cardiomyocytes; type: cell-based, rat; conditions: 0.1 μM, within 5 min
From the text: FIG. 22 is an immunoblot analysis of PKC translocation in drug-treated rat cardiomyocytes. […] Total membrane fractions were isolated by differential centrifugation in the absence of non-ionic detergent, subjected to SDS-PAGE and prepared for immunoblot analysis using antibodies against the PKC isoforms.

[7] = system: cytochrome c release in 32D.3 cells; assay: Immunoblot analysis of cytochrome c release from mitochondria; type: cell-based, murine
32D.3 cells [8] = assay: Cell viability determination by trypan blue staining

COc1cccc2c1C(=O)c1c(O)c3c(c(O)c1C2=O)C[C@@](O)(C(=O)CO)CC3O[C@H]1C[C@H](NCc2ccccc2)[C@H](O)[C@H](C)O1 (some centres unmarked) [AD 288, N-Benzyladriamycin]
resistance of P-glycoprotein expressing K562 cells [1]: highly resistant | ATP depletion by anti-erbB-2 antibody after drug pretreatment [2]: increased ATP depletion

COC(=O)CC(NC(=O)C(C)NC(=O)C(NC(=O)OCc1ccccc1)C(C)C)C(=O)CF (stereo not drawn) [Z-VAD-FMK, reference compound] (Cbz-Val-Ala-Asp(OMe)-CH2F; configuration not given here)
effect on AD 198-induced Δψm (mitochondrial depolarization) (32D.3 cells [3]): fails to inhibit | effect on AD 198-induced PLS3 phosphorylation (PLS3): not affected | effect on AD 198-induced apoptosis (HeLa cells): did suppress

COc1cccc2c1C(=O)c1c(O)c3c(c(O)c1C2=O)C[C@@](O)(C(=O)CO)C[C@@H]3O[C@H]1C[C@H](N)[C@H](O)[C@H](C)O1 [DOX, Doxorubicin]
resistance of P-glycoprotein expressing K562 cells [1]: highly resistant | ATP depletion by anti-erbB-2 antibody after drug pretreatment [2]: increased ATP depletion | Affected Hearts (%) ([4]; dose 1.2 mg/kg): 90% | MTS ([4]; dose 1.2 mg/kg): 0.7 | Affected Hearts (%) ([4]; dose 2.3 mg/kg): 100% | MTS ([4]; dose 2.3 mg/kg): 1.9 | Affected Hearts (%) ([4]; dose 4.6 mg/kg): 100% | MTS ([4]; dose 4.6 mg/kg): 6.1 | mortality after two years without transplantation ([5]; after DOX-induced congestive heart failure): 50% | frequency of heart failure ([5]; human, in vivo): 26%

COc1cccc(-c2cc(=O)c3ccccc3o2)c1N [PD98059, reference compound]
effect on AD 198-induced phosphorylation of MAPK [6]: inhibited

Cc1ccc(NC(=O)c2ccc(CN3CCN(C)CC3)cc2)cc1Nc1nccc(-c2cccnc2)n1 [imatinib, imatinib mesylate]
cell kill (K562 cells): approximately 70%

CCCCCCCCCCCCCC(=O)O[C@@H]1[C@@H](C)[C@@]2(O)[C@@H](C=C(CO)C[C@]3(O)C(=O)C(C)=C[C@@H]23)[C@@H]2C(C)(C)[C@]12OC(C)=O [PMA, reference compound]
translocation of PKC-δ (PKC-δ): Marginal translocation

CC(=O)c1c(O)c(C)c(O)c(Cc2c(O)c3c(c(C(=O)/C=C/c4ccccc4)c2O)OC(C)(C)C=C3)c1O [rottlerin, reference compound]
effect on AD 198-induced Δψm (mitochondrial depolarization) (32D.3 cells [3]): preserves punctate fluorescence | effect on AD 198-induced cytochrome c release ([7]; combined with 5 μM AD 198, rottlerin 10 μM, cyclosporine A 5 μM): inhibits cytochrome c release

CNc1ccc2oc(C[C@H]3O[C@@]4(CC[C@H]3C)O[C@H]([C@H](C)C(=O)c3ccc[nH]3)[C@H](C)C[C@H]4C)nc2c1C(=O)O [A23187, reference compound]
cell kill beyond that observed with BAPTA/EGTA alone (32D.3 cells [8]; with BAPTA-AM/EGTA treatment, after 6 hr): less than 15% | cell kill (32D.3 cells [8]; within 1 hr of treatment): > 90% | effect of BAPTA/EGTA treatment on drug-induced cytochrome c release ([7]; 5 μM AD 198, 5 μM AD 445, 10 μM A23187): blocked

Structures can show the parent of a compound that is named as a salt. Where a SMILES comes first, the peptide text is derived from it. The star is where a group is joined. Cbz = O=C(OCc1ccccc1)*; CH2F = FC*
